Data taken from the supplement of paper PMC4604168 (melanoma cell lines).
This is one part of the list. Many values rest on one well or one pass, so single values are uncertain.

How the values were obtained:
Assay in all cases: cell count relative to DMSO control; melanoma cells; higher = more viable cells
Settings in all cases: library dose: low library concentration; 72 h
MZ2-MEL = test system: MZ2-MEL
MeWo = test system: MeWo
RPMI7951 = test system: RPMI7951
RVH-421 = test system: RVH-421
SkMel28 = test system: SkMel28
SkMel2 = test system: SkMel2
SkMel30 = test system: SkMel30
SkMel5 = test system: SkMel5
UACC257 = test system: UACC257
UACC62 = test system: UACC62
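Also: cell number obtained by counting DAPI-stained nuclei in high-throughput microscope images with image analysis software, screen run in 1,536-well plates.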

Structure (SMILES)	cell count (MZ2-MEL) [%]	cell count (MeWo) [%]	cell count (RPMI7951) [%]	cell count (RVH-421) [%]	cell count (SkMel28) [%]	cell count (SkMel2) [%]	cell count (SkMel30) [%]	cell count (SkMel5) [%]	cell count (UACC257) [%]	cell count (UACC62) [%]
O=C(O)c1ccc2c(c1)nc(Nc1cccc(Cl)c1)c1ccncc12 + COc1ccc(-c2ccc3c(N4CCOCC4)nc(N4C[C@@H](C)O[C@@H](C)C4)nc3n2)cc1CO [KU0063794] (first compound 0.4 µM, partner dose 0.02 µM)	86.7	92.6	94.7	99.9	97.3	95.3	89	122	73	108
O=C(O)[C@@H]1[O][Sb](=[O])([O][Sb]2(=[O])[O][C@H]([C@H](O)CO)[C@H](O)[C@H](C(=O)O)[O]2)[O][C@H]([C@H](O)CO)[C@@H]1O (stereo not given in full) [stibogluconate] + Cc1nc(Nc2ncc(C(=O)Nc3c(C)cccc3Cl)s2)cc(N2CCN(CCO)CC2)n1 [dasatanib] (first compound 2 µM, partner dose 0.004 µM)	69.6	91.7	66.2	77.5	67.3	93.9	86.6	–	–	81.7
O=C(O)c1ccc2c(c1)nc(Nc1cccc(Cl)c1)c1ccncc12 + COc1cc2ncnc(Nc3ccc(Oc4ccccc4)cc3)c2cc1OC [SrcI1] (first compound 0.4 µM, partner dose 2 µM)	82.8	88.3	115	114	107	103	86.7	106	107	101
O=C(Nc1cc(C(F)(F)F)cc(C(F)(F)F)c1)c1cc(Cl)ccc1O + c1cc(-c2cnn3cc(-c4ccc(OCCN5CCCCC5)cc4)cnc23)ccn1 [Dorsomorphin] (first compound 0.016 µM, partner dose 0.4 µM)	95.4	96.9	97.4	108	98.9	116	103	93.5	81.7	89.8
O=C(Nc1cc(C(F)(F)F)cc(C(F)(F)F)c1)c1cc(Cl)ccc1O + Nc1cccc2c1CN(C1CCC(=O)NC1=O)C2=O [lenalidomide] (first compound 0.016 µM, partner dose 1 µM)	110	102	127	91.2	107	103	99.6	–	–	109
O=C(Nc1cc(C(F)(F)F)cc(C(F)(F)F)c1)c1cc(Cl)ccc1O + CS(=O)(=O)c1ccc(C(=O)Nc2ccc(Cl)c(-c3ccccn3)c2)c(Cl)c1 [vismodegib] (first compound 0.016 µM, partner dose 1 µM)	106	98.7	115	90.2	132	104	81.7	–	–	100
O=C(O)c1ccc2c(c1)nc(Nc1cccc(Cl)c1)c1ccncc12 + Clc1ccc(Nc2nnc(Cc3ccncc3)c3ccccc23)cc1 [vatalanib] (first compound 0.4 µM, partner dose 2 µM)	86.5	82.7	89.2	101	107	98.9	91.3	–	–	94.2
O=C(Nc1cc(C(F)(F)F)cc(C(F)(F)F)c1)c1cc(Cl)ccc1O + Cc1ccc(Nc2nccc(N(C)c3ccc4c(C)n(C)nc4c3)n2)cc1S(N)(=O)=O [Pazopanib] (first compound 0.016 µM, partner dose 0.4 µM)	84.1	108	98.2	94.8	97.1	102	101	–	–	105
O=C(Nc1cc(C(F)(F)F)cc(C(F)(F)F)c1)c1cc(Cl)ccc1O + Nc1nc(F)nc2c1ncn2[C@@H]1O[C@H](CO)[C@@H](O)[C@@H]1O [fludarabine] (first compound 0.016 µM, partner dose 0.2 µM)	113	50.8	115	139	96.4	0.334	21.5	–	–	82.8
O=C(Nc1cc(C(F)(F)F)cc(C(F)(F)F)c1)c1cc(Cl)ccc1O + CN1CCN(c2ccc3nc(-c4c(N)c5c(F)cccc5[nH]c4=O)[nH]c3c2)CC1 [Dovitinib] (first compound 0.016 µM, partner dose 0.1 µM)	95.7	84.7	105	114	98.7	99.7	82.8	–	–	104
O=C(Nc1cc(C(F)(F)F)cc(C(F)(F)F)c1)c1cc(Cl)ccc1O + Cc1cn(-c2cc(NC(=O)c3ccc(C)c(Nc4nccc(-c5cccnc5)n4)c3)cc(C(F)(F)F)c2)cn1 [nilotinib] (first compound 0.016 µM, partner dose 0.2 µM)	95.3	103	90	81	111	90.5	99.2	–	–	85.1
O=C(O)c1ccc2c(c1)nc(Nc1cccc(Cl)c1)c1ccncc12 + OCc1c[nH]c2ccccc12 [Indole-3-carbinol] (first compound 0.4 µM, partner dose 0.8 µM)	84.6	89.6	98.1	102	97.7	105	91.4	–	–	80.9
O=C(Nc1cc(C(F)(F)F)cc(C(F)(F)F)c1)c1cc(Cl)ccc1O + Cc1cc(Nc2cc(N3CCN(C)CC3)nc(/C=C/c3ccccc3)n2)n[nH]1 [ENMD2076] (first compound 0.016 µM, partner dose 0.04 µM)	103	105	112	82.9	84.4	99.9	86	–	–	100
O=C(O)c1ccc2c(c1)nc(Nc1cccc(Cl)c1)c1ccncc12 + Nc1cccc2c1CN(C1CCC(=O)NC1=O)C2=O [lenalidomide] (first compound 0.4 µM, partner dose 1 µM)	88.7	81.8	83.2	90.8	91.5	93.7	80	–	–	102
O=C(Nc1cc(C(F)(F)F)cc(C(F)(F)F)c1)c1cc(Cl)ccc1O + NC(=O)c1ccc(N(C(N)=O)c2c(F)cccc2F)nc1-c1ccc(F)cc1F [VX702] (first compound 0.016 µM, partner dose 0.4 µM)	117	102	111	81.7	70.9	102	124	–	–	106
O=C(O)c1ccc2c(c1)nc(Nc1cccc(Cl)c1)c1ccncc12 + Cc1nc(Nc2ncc(C(=O)Nc3c(C)cccc3Cl)s2)cc(N2CCN(CCO)CC2)n1 [dasatanib] (first compound 0.4 µM, partner dose 0.004 µM)	75	90.1	72.4	83.1	91.1	91.9	79.1	–	–	84.8
O=C(Nc1cc(C(F)(F)F)cc(C(F)(F)F)c1)c1cc(Cl)ccc1O + CS(=O)(=O)CCNCc1ccc(-c2ccc3ncnc(Nc4ccc(OCc5cccc(F)c5)c(Cl)c4)c3c2)o1 [lapatinib] (first compound 0.016 µM, partner dose 0.8 µM)	88.1	108	111	99.1	88.8	101	102	–	–	143
O=C(O)c1ccc2c(c1)nc(Nc1cccc(Cl)c1)c1ccncc12 + C[C@]1(c2nc3c(C(N)=O)cccc3[nH]2)CCCN1 [Veliparib] (first compound 0.4 µM, partner dose 1.4 µM)	84.9	90.4	76.7	110	94.5	91.6	89.3	–	–	86.2
O=C(O)c1ccc2c(c1)nc(Nc1cccc(Cl)c1)c1ccncc12 + COc1ccc(Cl)c(Nc2nc3ccccc3nc2NS(=O)(=O)c2cccc(NC(=O)C(C)(C)N)c2)c1 [XL147] (first compound 0.4 µM, partner dose 0.8 µM)	87.8	86.6	81.8	106	111	99.6	91.8	–	–	101
O=C(Nc1cc(C(F)(F)F)cc(C(F)(F)F)c1)c1cc(Cl)ccc1O + COc1ccc(C2=N[C@@H](c3ccc(Cl)cc3)[C@@H](c3ccc(Cl)cc3)N2C(=O)N2CCNC(=O)C2)c(OC(C)C)c1 [Nutlin-3] (first compound 0.016 µM, partner dose 0.1 µM)	96.4	111	123	94.7	122	95.2	125	–	–	114
O=C(Nc1cc(C(F)(F)F)cc(C(F)(F)F)c1)c1cc(Cl)ccc1O + COCC[n+]1c2c(n(Cc3cnccn3)c1C)C(=O)c1ccccc1C2=O [YM155] (first compound 0.016 µM, partner dose 0.0004 µM)	52.5	112	94.5	73.4	103	94	90.1	–	–	106
O=C(O)c1ccc2c(c1)nc(Nc1cccc(Cl)c1)c1ccncc12 + COCC[n+]1c2c(n(Cc3cnccn3)c1C)C(=O)c1ccccc1C2=O [YM155] (first compound 0.4 µM, partner dose 0.0004 µM)	69.9	100	101	110	88.4	102	81.8	–	–	76.9
O=C(O)[C@@H]1[O][Sb](=[O])([O][Sb]2(=[O])[O][C@H]([C@H](O)CO)[C@H](O)[C@H](C(=O)O)[O]2)[O][C@H]([C@H](O)CO)[C@@H]1O (stereo not given in full) [stibogluconate] + Nc1cccc2c1CN(C1CCC(=O)NC1=O)C2=O [lenalidomide] (first compound 2 µM, partner dose 1 µM)	107	86.6	89.7	106	105	88.4	94.2	–	–	96.2
